Our source for the cytotoxicity call and growth inhibition call values is the antibiotic and cytotoxicity screens of Wong et al. (2023).

This is one part of the list.

For experiment [1], the system named is HSkMC (human skeletal muscle cells). Kind of experiment: cytotoxicity call (relative viability < 0.9). As to conditions: 10 µM.
The test system of experiment [2] is S. aureus RN4220. The experiment in a line: growth inhibition call (relative growth <= 0.2). The settings on record: 50 µM.

Regarding `C[C@H]1CN([C@@H](C)CO)C(=O)Cc2cc(NC(=O)Cn3cnnn3)ccc2O[C@@H]1CN(C)S(=O)(=O)c1ccc(F)cc1`, in experiment [1], the cytotoxicity call was “inactive”. In addition, the growth inhibition call in experiment [2] is “inactive”.

Regarding `C[C@@H]1CN([C@H](C)CO)C(=O)c2c(c3ccccc3n2C)-c2ccccc2CO[C@H]1CN(C)C(=O)[C@H](C)c1ccccc1`, in experiment [1], the cytotoxicity call was “inactive”. In addition, in experiment [2], the growth inhibition call is “inactive”.

For the molecule `CC(C)NC(=O)Nc1ccc2c(c1)C(=O)N([C@H](C)CO)C[C@@H](C)[C@H](CN(C)C(=O)Nc1ccc(C(F)(F)F)cc1)OCCCC[C@H](C)O2`, the cytotoxicity call in experiment [1] is “inactive”. Moreover, in experiment [2], the growth inhibition call was “inactive”.

Regarding `COc1ccc2c3c([nH]c2c1)[C@@H](CO)N(C[C@]13CN(CCc2ccccc2)C1)C(=O)CN1CCOCC1`, in experiment [1], the cytotoxicity call is “inactive”. The growth inhibition call in experiment [2] was “inactive”.

For the molecule `O=C(C[C@@H]1C[C@@H]2c3cc(NC(=O)c4ccc5c(c4)OCO5)ccc3O[C@@H]2[C@@H](CO)O1)NCc1ccc(Oc2ccccc2)cc1`, the cytotoxicity call in experiment [1] is “active”. Also, the growth inhibition call in experiment [2] was “inactive”.

Regarding `CCCCC(=O)C1CCCC=C1C(=O)O` (centres undefined), in experiment [1], the cytotoxicity call is “inactive”. The growth inhibition call in experiment [2] is “inactive”.

In the case of `NC(=O)c1ccc[n+](CC(=O)N2CCCCC2)c1`, the cytotoxicity call in experiment [1] is “inactive”. Besides, the growth inhibition call in experiment [2] was “inactive”.

In the case of `CC(CN)(Cc1ccccc1Cl)C(=O)O` (centres undefined), the cytotoxicity call in experiment [1] is “inactive”. Also, the growth inhibition call in experiment [2] is “inactive”.

For the molecule `O=C(Nc1ccno1)N1CCOCC1`, the cytotoxicity call in experiment [1] was “inactive”. The growth inhibition call in experiment [2] is “inactive”.

Regarding `CC(C)NC(=O)Nc1ccc2c(c1)C(=O)N([C@H](C)CO)C[C@H](C)[C@@H](CN(C)C(=O)Nc1cccc3ccccc13)OCCCC[C@H](C)O2`, the cytotoxicity call in experiment [1] was “inactive”. In addition, the growth inhibition call in experiment [2] is “inactive”.

In the case of `C[C@@H]1CCCCO[C@@H](CN(C)CC2CC2)[C@@H](C)CN([C@H](C)CO)C(=O)c2cc(NC(=O)CCC(F)(F)F)ccc2O1`, the cytotoxicity call in experiment [1] is “inactive”. Moreover, the growth inhibition call in experiment [2] was “inactive”.

With `COc1cccc(-c2ccc3c(c2)O[C@H](CN(C)C(=O)C2CCOCC2)[C@@H](C)CN([C@H](C)CO)S3(=O)=O)c1`, the cytotoxicity call in experiment [1] was “inactive”. For the same molecule, the growth inhibition call in experiment [2] is “inactive”.
